Reference: the supplement of paper PMC10126150
Sequences with one replicate were seen in a single cluster, so their values are uncertain.

Each sequence was assayed on ATP (assay: switch fluorescence ratio, 500 uM ATP over buffer (Cy3 cluster intensity, sum of 5 cycles each) (fold (ratio)); higher = stronger signal-on switching upon ATP binding; sequences stand for … in TCGTCGGCAGCGTCAGATGTGTATAAGAGACAGTTTTTTTTTTTTTTTTTTTTTTTTT…TC). Conditions: aptamer strand: ATP DNA aptamer (quencher-CACCTGGGGGAGTATTGCGGAGGAAGG + anchor), 100 nM annealed; ATP concentration: 500 uM; one replicate.
Method in brief: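 Between each of five buffer/ATP cycles, the flow-cell was stripped with NaOH and re-annealed. Each cycle imaged Cy3-labelled switching-strand clusters, annealed to 100 nM quencher-labelled ATP aptamer on a modified Illumina MiSeq flow-cell, first in selection buffer and then after 15 min with 500 uM ATP at 22 °C. The fluorescence ratio is summed target-cycle over summed buffer-cycle Cy3 intensity per cluster, averaged per switch-domain sequence, with clusters outside 100-1000 RFU excluded.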
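Note: ATP exposure 15 min at 22 °C before imaging.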

Row | Sequence | switch fluorescence ratio
1 | TAGTGGCCCA | 0.98
2 | TAGTGGCGGC | 0.998
3 | TAGTGGGGTT | 1.04
4 | TAGTGGTT | 1.03
5 | TAGTGTGTCT | 1.02
6 | TAGTGTGTGG | 1.03
7 | TAGTGTTAAG | 0.986
8 | TAGTTAAAAG | 1.01
9 | TAGTTATATC | 1.04
10 | TAGTTCCGTC | 1.02
11 | TAGTTGGGTG | 0.977
12 | TAGTTGTGCA | 0.976
13 | TAGTTTACAA | 1.02
14 | TAGTTTTTGC | 1.02
15 | TATAAACAA | 1.02
16 | TATAAACTAT | 0.983
17 | TATAACAATT | 0.98
18 | TATAAGCGTA | 1.04
19 | TATAAGGCAA | 1.06
20 | TATAAGTAAA | 1.12
21 | TATAATCCTT | 1.07
22 | TATAATTCAA | 1.02
23 | TATAATTCAT | 1.05
24 | TATACAATGC | 1.64
25 | TATACAGCAG | 1
26 | TATACCTATG | 1

Row | Sequence | switch fluorescence ratio
27 | TATACGGACC | 1.48
28 | TATACGGGCG | 1.1
29 | TATACGTTTA | 1.01
30 | TATACTAAGC | 1.04
31 | TATACTAGGT | 1.03
32 | TATAGAAAAC | 0.995
33 | TATAGCCTTA | 0.997
34 | TATAGCGCGT | 1.02
35 | TATAGCTCAC | 1.09
36 | TATAGGAGCG | 1.01
37 | TATAGGAGTA | 0.971
38 | TATAGGCATG | 1.09
39 | TATAGGCTTG | 0.976
40 | TATAGGTGGT | 0.991
41 | TATAGTACAG | 1.02
42 | TATAGTGAAA | 1.03
43 | TATATCCGTC | 0.996
44 | TATATGCCT | 0.961
45 | TATATGCTGC | 1.05
46 | TATATTCCGT | 1.05
47 | TATATTGTG | 0.998
48 | TATATTGTGT | 0.98
49 | TATCAAAGCT | 1.09
50 | TATCAACGGC | 0.967
51 | TATCACGAGA | 1.05
52 | TATCAGAGG | 0.985

Row | Sequence | switch fluorescence ratio
53 | TATCAGCGTT | 0.975
54 | TATCAGTAGC | 0.982
55 | TATCAGTATG | 0.993
56 | TATCATAGTC | 1.02
57 | TATCATCATT | 1.01
58 | TATCCAATTG | 1.01
59 | TATCCAGAGA | 1.01
60 | TATCCCATTG | 0.986
61 | TATCCCCGAC | 1.13
62 | TATCCGAA | 1.04
63 | TATCCTGGGG | 1.03
64 | TATCGAACA | 0.995
65 | TATCGCGAAA | 0.993
66 | TATCGCGAGA | 1.01
67 | TATCGCGTAG | 0.975
68 | TATCGGGC | 0.984
69 | TATCGGTGTC | 1.07
70 | TATCGGTTCC | 1.03
71 | TATCGGTTTT | 1.01
72 | TATCGTCAAC | 1.02
73 | TATCTAGGAG | 1.02
74 | TATCTAGTCT | 0.979
75 | TATCTATCTG | 0.996
76 | TATCTATGGA | 1.01
77 | TATCTGCGCA | 1.11
78 | TATCTGGCT | 1.03

Row | Sequence | switch fluorescence ratio
79 | TATCTGTCAT | 1.03
80 | TATCTTATTA | 1.05
81 | TATCTTCAAA | 0.989
82 | TATGAAAAAG | 1.03
83 | TATGAAAGAC | 1.08
84 | TATGAACGTT | 0.989
85 | TATGACGGCC | 1.01
86 | TATGACTGCG | 0.984
87 | TATGAGACT | 1.05
88 | TATGAGCCAG | 1
89 | TATGAGGCCT | 0.997
90 | TATGAGGCT | 1.09
91 | TATGAGTCGC | 1
92 | TATGAGTGCT | 1.04
93 | TATGATGAGC | 1.07
94 | TATGCCACTA | 1.02
95 | TATGCCGAGA | 1.09
96 | TATGCCTTCA | 1.16
97 | TATGCGGGTC | 1.02
98 | TATGCGTTCG | 1.08
99 | TATGCTACCA | 1.04
100 | TATGCTGGGA | 1.02
101 | TATGCTTAAA | 0.993
102 | TATGGAGGAC | 0.967
103 | TATGGCCTAG | 1.01
104 | TATGGCTATC | 1.02

Row | Sequence | switch fluorescence ratio
105 | TATGGGACTT | 1.06
106 | TATGGGCATA | 1.04
107 | TATGGGGTA | 1.01
108 | TATGGGGTGA | 0.971
109 | TATGGGTTG | 0.958
110 | TATGGTAACA | 0.98
111 | TATGGTTCAC | 1.01
112 | TATGGTTCAG | 0.951
113 | TATGTAAGTT | 1
114 | TATGTACTGC | 1.07
115 | TATGTAGGCT | 1.07
116 | TATGTATCGA | 1.02
117 | TATGTCCGTG | 0.987
118 | TATGTCGCTG | 1.01
119 | TATGTGCAG | 1.08
120 | TATGTGCGGC | 1.01
121 | TATGTGGAA | 0.986
122 | TATGTTGGAA | 0.972
123 | TATGTTGGT | 0.972
124 | TATTAAAAGT | 0.991
125 | TATTAAAGC | 1.02
126 | TATTAACAAT | 1.02
127 | TATTAACGGG | 1.03
128 | TATTAATAG | 0.997
129 | TATTAATCTG | 0.957
130 | TATTACGAG | 1.04

Row | Sequence | switch fluorescence ratio
131 | TATTACTTG | 0.991
132 | TATTAGACAC | 1.19
133 | TATTAGGCTG | 1.07
134 | TATTAGTCC | 1.03
135 | TATTATAGA | 1.01
136 | TATTATCGAC | 0.967
137 | TATTATGTAG | 0.974
138 | TATTATGTCC | 1.01
139 | TATTATTTCG | 0.987
140 | TATTCACAAT | 1.02
141 | TATTCCAATG | 1.05
142 | TATTCCCGCT | 1.87
143 | TATTCCTGCA | 1.11
144 | TATTCGATAT | 1.07
145 | TATTCGTACA | 0.974
146 | TATTCGTGCG | 0.969
147 | TATTCGTTG | 0.96
148 | TATTCTAAAC | 1.03
149 | TATTGACATG | 1.04
150 | TATTGAGTT | 1.01
151 | TATTGATTAC | 1.07
152 | TATTGCAAG | 0.975
153 | TATTGCGACG | 1.05
154 | TATTGCGTG | 1.03
155 | TATTGGCCTG | 1.01
156 | TATTGGTCCA | 0.982

Row | Sequence | switch fluorescence ratio
157 | TATTGTCTGA | 1.01
158 | TATTGTTAGA | 1.01
159 | TATTGTTCCC | 0.955
160 | TATTTAAGAC | 0.943
161 | TATTTAAGAG | 0.943
162 | TATTTACTGG | 0.996
163 | TATTTATTAA | 1
164 | TATTTCTCTT | 0.952
165 | TATTTGAGC | 0.995
166 | TATTTGATAA | 1.07
167 | TATTTGCGGC | 1.02
168 | TATTTGGGG | 0.991
169 | TATTTTATG | 1.04
170 | TATTTTCTA | 0.971
171 | TATTTTGGCT | 0.97
172 | TATTTTTCCA | 0.988
173 | TCAAACGGTA | 1.1
174 | TCAAAGATGG | 0.986
175 | TCAACATTGC | 1.11
176 | TCAACCATTA | 1.02
177 | TCAACCCTTT | 1.01
178 | TCAACGATAC | 2.02
179 | TCAACGTGGT | 1.03
180 | TCAAGCAGGC | 1.27
181 | TCAAGGCAT | 1
182 | TCAAGGGTCG | 0.999

Row | Sequence | switch fluorescence ratio
183 | TCAAGGTTGC | 0.981
184 | TCAAGTACGT | 1.29
185 | TCAAGTCGAT | 0.988
186 | TCAAGTGGTT | 0.999
187 | TCAATAAACT | 1.02
188 | TCAATAGCCA | 0.997
189 | TCAATATCTC | 1.1
190 | TCAATCTAGA | 1.04
191 | TCAATGATTA | 1.03
192 | TCAATGCTCG | 1.06
193 | TCAATGCTGA | 1.01
194 | TCAATGGCGT | 0.986
195 | TCAATGTCTA | 1
196 | TCACAATCCC | 1.02
197 | TCACAGACCC | 1.15
198 | TCACAGGGAC | 1.09
199 | TCACCAAAC | 1.05
200 | TCACCAGCTG | 1.04
201 | TCACCATAGC | 1.08
